Assay results: the supplement of paper PMC12217912
The other results are listed elsewhere or left out. Sequences were assembled here from the parent chain. Values near 0.05 are background.

B1: TEV protease; numbered along this chain (parent)
chain: MGESLFKGPRDYNPISSSICHLTNESDGHTTSLYGIGFGPFIITNKHLFRRNNGTLVVQSLHGVFKVKDTTTLQQHLVDGRDMIIIRMPKDFPPFPQKLKFREPQREERICLVTTNFQTKSMSSMVSDTSCTFPSGDGIFWKHWIQTKDGQCGSPLVSTRDGFIVGIHSASNFTNTNNYFTSVPKNFMELLTNQEAQQWVSGWRLNADSVLWGGHKVFMVKPEEPFQPVKEATQL

Variants of: B1
Assay: raw area under fraction-flipped curve 0-4 h after induction (AUC4h, not background-subtracted), DNA-recorder readout of cleavage of the substrate (dimensionless); higher = more cleavage of the substrate by the protease variant
Details: temperature: 34 °C; time window: 0-4 h after rhamnose induction
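Further: Bxb1 expression induced with 0.2% (w/v) L-rhamnose at OD600 near 0.5, cultures sampled hourly, flipped fraction per protease–substrate barcode pair counted by paired-end Illumina sequencing.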

| Variant | area with substrate ECLYFQS | area with substrate EDLYFQS | area with substrate EFLYFQS | area with substrate EHLYFQS | area with substrate EKLYFQS | area with substrate EMLYFQS | area with substrate ERLYFQS | area with substrate ESLYFQS | area with substrate EVLYFQS | area with substrate EYLYFQS | area with substrate EGLYFQS | area with substrate EILYFQS | area with substrate ELLYFQS | area with substrate EPLYFQS | area with substrate EQLYFQS | area with substrate ETLYFQS | area with substrate EELYFQS | area with substrate EWLYFQS |
| --- | --- | --- | --- | --- | --- | --- | --- | --- | --- | --- | --- | --- | --- | --- | --- | --- | --- | --- |
| F117A | 0.102 | 0.117 | 0.129 | 0.108 | 0.111 | 0.0664 | 0.0959 | 0.133 | 0.0798 | 0.106 | – | – | – | – | – | – | – | – |
| F117S | 0.112 | 0.0979 | – | 0.117 | 0.125 | 0.0936 | 0.0907 | – | 0.121 | 0.0916 | 0.108 | 0.0995 | 0.0899 | 0.148 | 0.108 | 0.113 | – | – |
| F117C | 0.118 | 0.126 | – | – | – | 0.0963 | – | 0.0882 | 0.12 | 0.0994 | 0.087 | 0.0781 | 0.104 | 0.115 | 0.133 | 0.144 | 0.0045 | – |
| T115L | 0.11 | 0.131 | – | – | – | 0.104 | 0.0999 | – | 0.0869 | – | – | – | – | 0.147 | – | – | 0.159 | 0.0799 |
| T115A | 0.12 | 0.106 | – | – | 0.115 | – | 0.117 | 0.077 | – | – | – | – | 0.0748 | – | 0.116 | – | – | – |
| N178E | 0.0694 | – | 0.0631 | 0.0475 | 0.0868 | 0.064 | – | 0.0824 | 0.0331 | – | – | 0.0501 | 0.0556 | – | 0.0672 | – | – | 0.0814 |
| N178K | 0.0942 | 0.135 | – | 0.0876 | – | – | 0.109 | 0.0957 | 0.103 | – | 0.0855 | 0.113 | – | 0.108 | – | – | – | 0.125 |
| Y179C | 0.054 | – | – | 0.0547 | 0.0521 | 0.057 | 0.0582 | 0.0581 | 0.0566 | – | – | – | – | – | – | – | 0.0616 | 0.0645 |
| Q118D | 0.155 | 0.104 | – | 0.125 | 0.111 | 0.102 | 0.0984 | – | 0.084 | – | 0.0896 | 0.0293 | 0.0865 | – | – | – | – | 0.118 |
| S127W | 0.11 | – | 0.106 | – | 0.141 | – | 0.151 | 0.107 | 0.0944 | – | 0.0864 | – | – | 0.127 | – | – | 0.141 | – |
| S127C | 0.098 | – | – | – | 0.0754 | – | 0.0985 | 0.102 | 0.0901 | 0.0866 | 0.108 | 0.098 | 0.0943 | 0.119 | 0.102 | 0.0976 | 0.156 | 0.0909 |
| C152N | 0.068 | – | – | 0.099 | – | 0.0608 | 0.0617 | 0.0468 | 0.051 | – | 0.063 | – | 0.0591 | 0.064 | 0.075 | – | 0.0554 | – |
| Q146S | 0.0935 | – | – | – | – | – | 0.106 | 0.0958 | – | – | – | – | – | – | – | – | 0.124 | 0.112 |
| Q146H | 0.0991 | 0.173 | – | 0.0911 | – | 0.153 | 0.0993 | 0.111 | 0.0985 | – | 0.079 | 0.108 | – | 0.142 | 0.128 | – | – | – |
| Q146A | 0.093 | 0.135 | – | 0.136 | 0.113 | 0.0852 | – | 0.114 | – | 0.103 | – | 0.112 | – | 0.123 | 0.102 | 0.138 | – | 0.0987 |
| Q146W | 0.146 | 0.181 | 0.167 | – | 0.159 | 0.189 | 0.118 | 0.181 | 0.132 | 0.152 | 0.114 | – | – | 0.175 | 0.165 | 0.176 | – | 0.0766 |
